Among all 410,000 compounds or so, about 5,000 (1.2%) were called active. The inconclusive results got no clear call from the source; some entries with a clear call stand among them for comparison. Calls follow the shape of the dose curve; as a rule, active = well fitted inhibition curve with a large enough effect; inconclusive = small, poorly fitted or top-dose-only effect; inactive = no such curve, though single readings can be large or run the other way. Where the call is inconclusive, the potency comes from a doubtful curve fit.
Assay: qHTS for Inhibitors of TGF-b; also: nearly all actives have a fitted effect of over 65% in size
Conditions: HepG2 CAGA-GFP TGF-b/SMAD3 reporter, GFP fluorescence, 18 h, TGF-beta stimulated, 500 pg/mL final; series mostly up to 46.1 µM
Method in brief: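 Per well, imaged GFP fluorescence of HEPG2 CAGA-GFP cells gives the signal; cells get compound, then TGF-beta (500 pg/mL final), 18 h at 37 degrees C; %Activity versus -TGF-beta and +DMSO controls.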
Potency is read from the fitted curve at half-maximal effect; tags tell the direction and shape of the fitted curve.

Structure (SMILES)	Potency
COC(=O)/C=C1/S/C(=N/NC(=O)c2ccc(Cl)cc2Cl)NC1=O	inconclusive: 3.16 µM [inhibitor, single point]
COC(=O)c1ccc2c(c1C(=O)OC)CN(S(=O)(=O)C(C)(C)C)[C@@H]2CCO	inactive
O=C(NC12CC3CC(CC(C3)C1)C2)c1ccccc1	inactive
COC(=O)[C@H](C)NC(=O)NC(C)CCc1ccccc1 (some centres undefined)	inconclusive: 35.5 µM [inhibitor, single point]
COc1ccc(CNC(=O)CN2C(=O)NC(C)(c3cccc4ccccc34)C2=O)cc1OC (centres undefined)	inconclusive: 35.5 µM [inhibitor, partial curve, poor fit]
CC(C)[C@H](NC(=O)c1ccc([N+](=O)[O-])cc1Cl)C(=O)N1CCN(C/C=C/c2ccccc2)CC1	inconclusive: 3.55 µM [inhibitor, full curve]
O=C(Nc1cc(-c2nc3cc(Cl)ccc3o2)ccc1Cl)c1cc([N+](=O)[O-])ccc1N1CCOCC1	inconclusive: 6.31 µM [inhibitor, single point]
CCCN(CCC)Cc1c(C(=O)N/N=C/c2ccsc2)nnn1-c1nonc1N	inconclusive: 0.112 µM [inhibitor, full curve, poor fit]
O/C(=C\c1nc2ccccc2[nH]1)c1cccs1	inactive
CCOC(=O)c1c(-c2ccc(-c3ccccc3)cc2)csc1NC(=O)CNCCN(C)C	inconclusive: 35.5 µM [inhibitor, single point]
COc1ccc(NC(=O)c2sc3nc4c(c(-c5ccc(OC)cc5)c3c2N)C(=O)CC(C)(C)C4)cc1	inactive
COc1ccc(-c2nc3scc(CCNC(=O)c4cccc(Br)c4)n3n2)cc1	inconclusive: 12.6 µM [inhibitor, partial curve, poor fit]
CCOC(=O)c1ccc(N2C(=O)c3[nH]nc(-c4ccc(OCC)cc4)c3C2c2cccs2)cc1 (centres undefined)	inconclusive: 1.58 µM [inhibitor, partial curve, poor fit]
CC(C)N(Cc1ccccc1)C(=O)C1CCCN(c2ncnc3onc(-c4ccc(F)cc4)c23)C1 (centres undefined)	inconclusive: 12.6 µM [inhibitor, partial curve]
COc1ccc(-c2ccccc2C2C3C=CCCC3(C)C(=O)N2Cc2ccccc2)cc1 (centres undefined)	inconclusive: 15.8 µM [inhibitor, single point]
COc1ccccc1CNC(=O)c1cnc(SC)nc1C	inactive
COc1ccc2[nH]cc(CCNC(=O)c3cnn(-c4ccc(C)cc4)c3C3CCN(C(=O)OC(C)(C)C)CC3)c2c1	inconclusive: 1 µM [inhibitor, partial curve, poor fit]
Cc1cc(NC(=S)NC(=O)c2ccco2)c2ccccc2n1	inconclusive: 4.47 µM [inhibitor, single point]
OC[C@@H]1CN(Cc2ccc(-c3ccccc3)cc2)C[C@H](n2cnc3c(NC4CCC4)ncnc32)O1	inconclusive: 35.5 µM [inhibitor, single point]
Cc1ccc(S(=O)(=O)NNc2nc3ccccc3nc2C(F)(F)F)cc1	inconclusive: 35.5 µM [inhibitor, single point]
CCC[C@@H](NS(=O)(=O)c1ccc(C)cc1)C(=O)Oc1ccc2c3c(c(=O)oc2c1)CCC3	inconclusive: 35.5 µM [inhibitor, single point]
O=C(CSCc1ccc(Cl)cc1)Nc1ccccc1C(=O)N1CCOCC1	inconclusive: 3.16 µM [inhibitor, single point]

Structure (SMILES)	Potency
COc1ccc(N2CCN(C(=O)c3ccc(CNS(=O)(=O)c4cc(C)ccc4C)cc3)CC2)cc1	inconclusive: 8.91 µM [inhibitor, partial curve, poor fit]
Cc1cc(NC(=O)C2Oc3ccccc3OC2C)no1 (centres undefined)	inactive
COc1ccc(/C=C2/CC/C(=C\c3ccc(OC)c(OC)c3OC)C2=O)c(OC)c1OC	inactive
Cc1cc(C)cc(C(O)c2ncc(-c3ccccc3Cl)[nH]2)c1 (centres undefined)	inconclusive: 20 µM [inhibitor, partial curve, poor fit]
CN(CC(=O)Nc1cccc(F)c1)C(=O)c1ccc(OCC2CCCO2)cc1 (centres undefined)	inconclusive: 20 µM [inhibitor, single point]
CC[C@]12c3[nH]c4ccc(Cl)cc4c3CCN1C(=O)[C@@H](CC(=O)NC(C)(C)C)C[C@@H]2C(=O)N1CCN(C(=O)c2ccco2)CC1	inconclusive: 35.5 µM [inhibitor, single point]
Cn1nc(C(C)(C)C)cc1C(=O)N1CCCCC1c1cc(C(=O)Nc2ccc3c(c2)OCO3)no1 (centres undefined)	inactive
COc1cccc2sc(NNC(=O)c3nc4ccccc4s3)nc12	inconclusive: 11.2 µM [inhibitor, partial curve, poor fit]
COc1ccc(OC)c(CCNC(=O)c2cnn(-c3ccc(C)cc3C)c2C2CCN(C(=O)OC(C)(C)C)CC2)c1	inconclusive: 3.55 µM [inhibitor, partial curve, poor fit]
Cc1ccc(N2CC(C(=O)Nc3ncc([N+](=O)[O-])s3)CC2=O)cc1 (centres undefined)	inactive
Cc1c(C(=O)N2CCC(C)CC2)c(S(=O)(=O)Nc2cccc(C(F)(F)F)c2)c(C)n1C	inactive
COc1ccc(Cl)cc1NC(=O)NCc1ccccn1	inactive
Cc1ccc(/C=N/NC(=O)c2cc3ccccc3cc2O)o1	inconclusive: 35.5 µM [inhibitor, single point]
Cc1cc(C)c2c(N)c(C(=O)c3ccccc3)sc2n1	inconclusive: 35.5 µM [inhibitor, partial curve, poor fit]
CC(=O)c1cccc(NC(=O)C2CCN(S(=O)(=O)c3ccc4[nH]c(=O)ccc4c3)CC2)c1	inactive
O=[N+]([O-])c1ccc(S(=O)(=O)N2CCN=C2SCc2ccc(F)cc2)cc1	inactive
CC(C)CCNC(=O)C(c1ccco1)N(Cc1ccccc1)C(=O)c1snc(C(N)=O)c1N (centres undefined)	inconclusive: 2.24 µM [inhibitor, partial curve, poor fit]
O=C(CCCOc1ccc(Cl)cc1Cl)N/N=C/c1ccccc1O	inconclusive: 6.31 µM [inhibitor, full curve]
COc1ccc(CN(C(=O)CCC(=O)Nc2cc(C)on2)C(C(=O)NC(C)(C)C)c2cccc(OC)c2OC)cc1 (centres undefined)	inactive
CC(OC(=O)c1ccc(NS(=O)(=O)c2ccc3[nH]c(=O)[nH]c3c2)cc1)C(=O)Nc1cccc(Cl)c1Cl (centres undefined)	inconclusive: 35.5 µM [inhibitor, single point]
Cc1[nH]c2ccccc2c1C(Nc1nccs1)c1ccncc1 (centres undefined)	inconclusive: 0.178 µM [inhibitor, full curve, poor fit]
CC(C)(C)n1ncc2c(=O)n(Cc3ccccc3Br)cnc21	inactive

Structure (SMILES)	Potency
COc1ccc(-c2c(C)nn3c(C(F)(F)F)cc(-c4ccccc4)nc23)cc1	inactive
Cc1ccc(S(=O)(=O)N2CCCC(C(=O)N(Cc3cccs3)C3CC3)C2)cc1 (centres undefined)	inconclusive: 20 µM [inhibitor, single point]
COc1cc2c(cc1OC)C(C)N(C(=O)c1cc3c(C)cc(C)cc3[nH]1)CC2 (centres undefined)	active: 11.2 µM
O=C(Cn1cc(SCc2ccccc2F)c2ccccc21)N1CCCCC1	inconclusive: 7.08 µM [inhibitor, full curve, poor fit]
OC(c1cc(F)cc(Cl)c1)c1ncc(-c2cccc(C(F)(F)F)c2)[nH]1 (centres undefined)	active: 11.2 µM
Cc1cc(=O)oc2c3c(cc(OCC(=O)N4CCC[C@H]4C(=O)O)c12)OC(C)(C)CC3	inactive
Cc1cc(C)cc(NC(=O)Cc2c(C(=O)O)c(C)cn2C)c1	inactive
O=C(NCc1ccco1)c1ccc2c(c1)N(Cc1c(F)cccc1Cl)C(=O)c1ccccc1S2	inconclusive: 31.6 µM [inhibitor, single point]
CC(C)c1ccccc1NC(=O)COc1ccc(C(=O)NCCc2ccccc2)cc1	inconclusive: 17.8 µM [inhibitor, single point]
O=C(c1ccc(C(=O)N2CCCCCC2)cc1)N1CCCCCC1	inconclusive: 0.891 µM [inhibitor, full curve, poor fit]
O=C(Nc1ccc(Br)cc1)Nc1ccccc1F	inconclusive: 11.2 µM [inhibitor, partial curve, poor fit]
CN(C)c1ccc(N=Cc2cccc3ccccc23)cc1	inconclusive: 11.2 µM [inhibitor, partial curve]
COc1ccc(Cn2ccc3nc(C)c(C(=O)N4CCN(c5ccc(OC)cc5)CC4)cc3c2=O)cc1	inconclusive: 15.8 µM [inhibitor, single point]
N#Cc1c(Nc2ccccc2C(F)(F)F)s[nH]c1=O	active: 20 µM
CC(C)Nc1ncnc2c1ncn2[C@H]1CN(Cc2ccccc2)C[C@@H](CO)O1	inactive
COc1cccc(/C=N/n2c(N)nc3ccccc32)c1OC	inconclusive: 3.55 µM [inhibitor, full curve]
COC(=O)C1=C(C(=O)OC)[C@@H]2N(C)c3ccc(OC)cc3[C@@]23C[C@@H](C(=O)OC)N(C(=O)c2ccc(Br)cc2)C3=N1	inconclusive: 28.2 µM [inhibitor, single point]
O=[N+]([O-])c1ccc(NC(=S)N2CCc3ccccc32)cc1	inconclusive: 22.4 µM [inhibitor, single point]
CC(CCc1ccccc1)NC(=O)C1CCN(S(=O)(=O)N2CCCCC2)CC1 (centres undefined)	inactive
CCc1ccc(CNC(=O)c2cc3c(=O)n(Cc4cccs4)ccc3nc2C)cc1	inconclusive: 17.8 µM [inhibitor, single point]
